Results published in publication PMC4336329 (PLoS ONE, 2015).
Among all 310,000 compounds or so, about 2,200 (0.71%) showed an effect of 50% or more. Effects have a minus sign here. Some of the results follow.

target: human ether-à-go-go-related gene (hERG) potassium channel (human, UniProt Q12809); assay: primary screen, population patch clamp on CHO cells stably expressing hERG
Sequence (Q12809 whole entry, looked up): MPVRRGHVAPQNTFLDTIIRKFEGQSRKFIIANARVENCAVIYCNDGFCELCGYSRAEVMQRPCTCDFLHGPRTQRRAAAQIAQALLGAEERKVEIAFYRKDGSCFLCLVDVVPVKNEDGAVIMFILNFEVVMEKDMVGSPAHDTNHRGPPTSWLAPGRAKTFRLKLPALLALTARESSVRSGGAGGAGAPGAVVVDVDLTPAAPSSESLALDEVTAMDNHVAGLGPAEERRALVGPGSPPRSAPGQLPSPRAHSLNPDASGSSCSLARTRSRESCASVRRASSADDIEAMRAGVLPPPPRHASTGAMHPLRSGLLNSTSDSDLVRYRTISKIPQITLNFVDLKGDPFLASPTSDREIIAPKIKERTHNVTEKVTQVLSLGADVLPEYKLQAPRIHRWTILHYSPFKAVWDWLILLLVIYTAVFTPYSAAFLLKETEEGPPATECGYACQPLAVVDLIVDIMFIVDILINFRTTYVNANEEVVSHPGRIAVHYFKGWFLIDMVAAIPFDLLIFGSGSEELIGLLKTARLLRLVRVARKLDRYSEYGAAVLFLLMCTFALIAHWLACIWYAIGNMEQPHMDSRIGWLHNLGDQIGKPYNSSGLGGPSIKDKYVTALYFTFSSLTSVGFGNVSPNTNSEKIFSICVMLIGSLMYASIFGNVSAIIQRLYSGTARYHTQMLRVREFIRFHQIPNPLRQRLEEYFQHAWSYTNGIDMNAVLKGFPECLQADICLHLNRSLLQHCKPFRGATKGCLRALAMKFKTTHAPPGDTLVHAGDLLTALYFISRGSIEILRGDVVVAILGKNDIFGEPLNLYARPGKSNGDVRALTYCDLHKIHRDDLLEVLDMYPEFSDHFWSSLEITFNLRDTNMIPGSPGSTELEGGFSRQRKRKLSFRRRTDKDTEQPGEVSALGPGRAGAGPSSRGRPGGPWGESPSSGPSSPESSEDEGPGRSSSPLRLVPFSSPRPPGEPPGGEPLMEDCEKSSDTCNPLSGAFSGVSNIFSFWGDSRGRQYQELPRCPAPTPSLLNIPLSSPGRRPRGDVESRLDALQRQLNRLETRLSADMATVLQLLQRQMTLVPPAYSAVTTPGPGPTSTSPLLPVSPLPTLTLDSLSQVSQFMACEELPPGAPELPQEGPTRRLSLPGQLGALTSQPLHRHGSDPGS

Compound | hERG current change (%, negative = inhibition) at 1uM [%]
Cc1ccc(CNC(=O)CN(Cc2ccccc2)S(C)(=O)=O)cc1 | -3.4
COCCOC(=O)c1c(N)n(Cc2ccc(OC)cc2)c2nc3ccccc3nc12 | -33.4
Cc1nc2ccccc2n1C(=O)c1ccc(Cl)cc1[N+](=O)[O-] | 16
CCN(CC)S(=O)(=O)c1ccc(Cl)c(NC2=NCCCCC2)c1 | 5.6
CCOc1cc2c3c(c1)C(C)=CC(C)(C)N3C(=O)C2=O | 11.7
CCCCC(=O)N(c1ccc(OCC)cc1)C1C=CS(=O)(=O)C1 (stereo not shown) | 9.96
COc1ccccc1CCN=C(N)NS(=O)(=O)c1cccs1 | -5.86
CC1=NN(c2ccccc2)C(=O)/C1=C\C=C\c1ccccc1 | 5.77
Cc1nn(-c2ccccc2)c(Cl)c1C(=O)NCC(C)C | -5.48
NNC(=O)CSCc1nc(-c2ccccc2)cs1 | 6.96
Cc1oc(-c2cc(F)cc(F)c2)nc1CN1CCN(C(=O)c2ccco2)CC1 | 0.472
CCC(=O)c1ccccc1OCCCCn1cncn1.O=C(O)C(=O)O | 10.5
CCn1cc(C2=NOC(C(=O)Nc3ccc4c(c3)OCO4)C2)c(C)n1 (stereo not shown) | 11
Cc1cc(C(=O)Nc2nnc(C3CCCCC3)s2)cs1 | 8.41
COc1ccc(N2C3=[N+](CC2(C)O)c2ccccc2CC3)cc1.[Br-] (stereo not shown) | -2.55
CC1(C)CCCN(C(=O)N2c3ccccc3Sc3ccccc32)C1 | 12
Nc1cc(S(=O)(=O)Nc2ccc(Cl)cc2)ccc1N1CCOCC1 | 13.7
CCOc1ccc(NC(=O)Nc2cccnc2)cc1 | -0.908
COc1ccc(CC(=O)N(Cc2cc3cc(OC)ccc3[nH]c2=O)C(C)C)cc1 | -9.97
COC(=O)CC(N)c1ccc(OC)c2ccccc12.Cl (stereo not shown) | -0.973
COc1ccc(CNC(=O)c2cccnc2Sc2ccc(C)c(C)c2)cc1 | 14.1
Cc1cc(C(=O)CS(=O)(=O)c2ccc(F)cc2)cc(C)c1O | 12.6
CC(C)OCC(O)Cn1c(N2CCCC2)nc2c1c(=O)n(C)c(=O)n2C (stereo not shown) | 15.5

Compound | hERG current change (%, negative = inhibition) at 1uM [%]
C/C(CC(=O)NC1CCCCC1)=N\NC(=O)COc1ccc(C)cc1Br | 9.88
O=C(CCSc1nc(-c2ccco2)cc(C(F)(F)F)n1)NCc1cccs1 | 5
Oc1c(Cl)cc(Cl)cc1/C=N/Nc1ncc(Br)cn1 | 14.9
CC(CC(=O)NCc1cccnc1)c1ccccc1 (stereo not shown) | 11.8
N#Cc1ccc(NC(=O)CSc2cn[nH]n2)cc1 | 18.1
NC(=S)N/N=C/c1ccc(-c2cc(Cl)c(Cl)cc2Cl)o1 | 14.2
O=C(NCCCN1CCOCC1)c1onc(CSc2ccccn2)c1C(=O)NCCCN1CCOCC1 | 12.1
COC(=O)C1=NN(c2cccc3ccccc23)C2C(=O)N(c3ccccc3OC)C(=O)C12 (stereo not shown) | 0.143
Cc1nc2ccccc2c(=O)n1-c1ccc(F)c(NC(=O)c2cccs2)c1 | 1.13
CCOc1cccc(C(=O)NC(=S)Nc2cccc(NC(=O)c3ccccc3Cl)c2)c1 | 7.8
Cn1c(=O)oc2cc(S(=O)(=O)Nc3ccc(Cl)cc3)ccc21 | 13.2
CC(OC(=O)c1cccs1)C(=O)NC1CC1 (stereo not shown) | 7.03
COc1ccc(S(=O)(=O)N2CCC(C(=O)N3CCCCC3)CC2)cc1 | 16
CCCC(NC(=O)CCl)c1ccccc1 (stereo not shown) | 7.35
CS(=O)(=O)N1CCN(C(=O)c2cc3ccccc3oc2=O)CC1 | 4.23
COC(=O)c1cc(OC)c(OC)cc1NC(=O)CC1CCCCC1 | 12.7
CC(C)N1C(=O)c2ccccc2N(Cc2ccccc2)S1(=O)=O | 15.5
CC(C)(CC(=O)OCC(=O)Nc1ccccc1F)CC1=NS(=O)(=O)c2ccccc2N1 | 5.91
CN(CC(=O)Nc1ccc(F)cc1)C(=O)COC(=O)/C=C/c1cccs1 | 14
CCc1ccc(OCC(=O)NC(NC(=S)Nc2ccc(Cl)cc2)C(Cl)(Cl)Cl)cc1 (stereo not shown) | 12.1
COc1cc(OC)cc(C(=O)N[C@H](C(=O)OCC(=O)Nc2ccc(C(N)=O)cc2)C(C)C)c1 | -8.7
C/C=C(/C)C(=O)OC(C)(C)[C@@H]1Cc2c(ccc3ccc(=O)oc23)O1 | 0.275
O=C(CSc1nc2c([nH]c3ccccc32)c(=O)n1-c1ccccc1)NCC1CCCO1 (stereo not shown) | 5.59
